From PubChem BioAssay AID686978 (National Center for Advancing Translational Sciences (NCATS), 2013)
Where “and” joins values, the source holds several entries; their conditions need not be identical. Identical values can stand only once. About 64,000 (15%) of roughly 420,000 compounds were called active. Inconclusive results, whose numbers are uncertain, are shown with a selection of clear calls. The call rests on the fitted dose curve; in most records, active means well fitted inhibition curve with a large enough effect; inconclusive means small, poorly fitted or top-dose-only effect; inactive means flat fitted curve, though single readings scatter. Potencies beside an inconclusive call are fits to weak or partial responses and may not hold up.

Assay: qHTS for Inhibitors of human tyrosyl-DNA phosphodiesterase 1 (TDP1): qHTS in cells in absence of CPT; further: nearly all actives have a fitted effect of over 55% in size
Details: DT40 Tdp1-/- hTDP1 cells, no CPT, ATP luminescence, 48 h; activity change, negative = growth inhibition: at 46.2 µM (top of the series) unless noted
Procedure, shortened: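 Stably hTDP1-transfected Tdp1-null chicken DT40 cells were treated with library compounds minus camptothecin and grown for at least 48 hr at 37 °C, after which cellular ATP was quantified by luminescence.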
On the % scale 0 is the no-effect control and ±100 the full control effect; potency means the concentration at half of the fitted maximal effect; tags describe the fitted curve by direction and shape.

Structure (SMILES) | Potency | activity change, negative = growth inhibition
C/C(N)=C(/C#N)C(=O)COC(=O)C1CCC(C(C)(C)C)CC1 (centres undefined) | inconclusive: 35.5 µM [inhibitor, single point] | –
CN(C(=O)c1cccc(NC(=O)Cc2ccc(NC(=O)C3CCN(C(=O)CCc4ccccc4)CC3)cc2)c1)C1CCC1 | active: 13 µM | –
O=C1c2ccccc2-c2onc3c(N4CCN(CCO)CC4)cc(N4CCN(C(=O)c5ccco5)CC4)c1c23 | active: 14.6 µM | –
O=C(O)c1ccc(N2C(=O)CC(N3CCN(c4cccc(Cl)c4)CC3)C2=O)cc1 (centres undefined) | active: 3.26 µM | –
Cc1cc(C)cc(C(N)=Nc2cccc(C#N)c2)c1 | inconclusive: 16.4 µM [inhibitor, single point] | –
O=C(O)c1ccc2c(c1)OCO2 | inactive | –
Cc1ccc(Cn2ncc3c(N4CCCC4)ncnc32)cc1 | inconclusive: 29.1 µM [inhibitor, partial curve] | –
Cc1ccc2[nH]c(O)c(N=NC(=O)C(C)n3cnc4ccccc4c3=O)c2c1 (centres undefined) | inconclusive: 11.6 µM [inhibitor, partial curve] | –
CCOC(=O)C1(CCCc2ccccc2)CCN(C(=O)CCc2cnccn2)CC1 | inconclusive: 29.1 µM [inhibitor, single point] | –
CCC(C)NC(=O)C1CCN(S(=O)(=O)c2ccc(OC)cc2)CC1 (centres undefined) | inactive | –
CN(C)C(CNC(=O)C1CC(=O)N(c2cccc(C(F)(F)F)c2)C1)c1ccccc1 (centres undefined) | inconclusive: 23.1 µM [inhibitor, single point] | –
Cc1onc(-c2ccccc2)c1C(=O)N1CCCN2C(=O)c3ccccc3C21 (centres undefined) | inactive | –
FC(F)Oc1ccc(NC(=S)Nc2ccc3cn[nH]c3c2)cc1 | inactive | –
CCc1nc2ccc(C(=O)N3CCCCC3)cn2c1N(CCC(C)C)CCN(C)C | inactive | –
O=C(Nc1ccn(CCCNCc2ccc3c(c2)OCO3)c(=O)n1)OCc1ccccc1 | inconclusive: 9.2 µM [inhibitor, partial curve, poor fit] | –
CC(C)CNc1ncnc2c1ncn2[C@H]1CN(Cc2ccc(F)cc2)C[C@@H](CO)O1 | inactive | –
Cc1ccc(-n2c(C)cc(C(=O)NS(=O)(=O)c3ccc(C)cc3)c2C)cc1 | inconclusive: 1.84 µM [inhibitor, partial curve, poor fit] | –
CCOC(=O)c1cnc(Nc2nc3ccccc3o2)nc1C | active: 3.16 µM | –
O=C(CN1CCCN(Cc2ccc(F)cc2Cl)C1=O)NC1CCCCCC1 | inconclusive: 17.8 µM [inhibitor, single point] | –
O=C(c1ccccc1[N+](=O)[O-])N1CCN(c2ccc(N3CCOCC3)nn2)CC1 | inactive | –
CCCCCCCCNCCS(=O)(=O)NCCCCCCCC | active: 16.4 µM | –
O=C(NCCCc1nc2ccccc2n1CCOc1ccccc1)C1CCCCC1 | inactive | –
Cc1c(C(=O)OCC(=O)N2CCCC2)cccc1[N+](=O)[O-] | inactive | –
CC(O)(CS(=O)(=O)Cc1ccccc1)c1ccccc1 (centres undefined) | inactive | –
CCN(CC)C(=O)C1=C(C)N(Cc2ccc(C(C)(C)C)cc2)C(=O)C(CC(=O)NCc2cccs2)C1 (centres undefined) | active: 23.1 µM | –

Structure (SMILES) | Potency | activity change, negative = growth inhibition
Cc1ccc(CSc2oc(-c3ccco3)nc2S(=O)(=O)c2ccc(Cl)cc2)cc1 | inconclusive: 29.1 µM [inhibitor, single point] | –
CCC(C)(C)C1CCC2(CC1)NC(=O)N(CC(=O)NCCOc1ccccc1)C2=O (centres undefined) | inconclusive: 13 µM [inhibitor, partial curve] | –
COC(=O)c1cc(S(=O)(=O)NCCc2sccc2C)c[nH]1 | inactive | –
COc1cc(CNC(=O)c2cc(-c3ccc(F)cc3C)n[nH]2)cc(OC)c1 | inconclusive: 16.4 µM [inhibitor, partial curve] | –
O=C(Cc1cccc(C(F)(F)F)c1)NCc1ccc(Cl)cc1 | inconclusive: 25.9 µM [inhibitor, single point] | –
CCOC(=O)c1cccc(NC(=O)c2cc(S(=O)(=O)N3CCCC3)cn2C)c1 | inconclusive: 13 µM [inhibitor, single point] | –
O=C(COC(=O)c1cccs1)NCC1CCCCC1 | inactive | –
CCC1CCCCN1C(=O)c1sc2ncnc(N(CC)CC)c2c1C (centres undefined) | inconclusive: 29.1 µM [inhibitor, single point] | –
COc1ccc(-c2onc(C)c2C)cc1S(=O)(=O)Nc1ccc(OC(F)(F)F)cc1 | inconclusive: 18.4 µM [inhibitor, single point] | –
O=C1CCCC2=C1C(c1cccc(Br)c1)n1nc(-c3ccco3)nc1N2 (centres undefined) | inconclusive: 23.1 µM [inhibitor, single point] | –
COC(=O)c1cc2sc(C)cc2n1Cc1ccccc1 | inconclusive: 20.6 µM [inhibitor, single point] | –
O=C1c2cnc3nc(SCc4cccc(Cl)c4)nn3c2CC2c3ccccc3CCN12 (centres undefined) | active: 20.6 µM | –
COc1ccccc1CNC(=O)c1cc(-c2ccccc2)nn1CC1CC(c2cccnc2)=NO1 (centres undefined) | – | inconclusive: -33.5% [inhibitor]
Cc1ccccc1-n1nnnc1SCC(=O)NCC1(N2CCOCC2)CCCCC1 | inconclusive: 29.1 µM [inhibitor, single point] | –
COc1ccc(C(=O)COc2ccccc2N2C(=O)C3C4C=CC(C4)C3C2=O)cc1 (centres undefined) | – | inconclusive: -32.9% [inhibitor]
CCCN(C1CCS(=O)(=O)C1)S(=O)(=O)c1cc(OC)ccc1OC (centres undefined) | inactive | –
CC1CCCN(c2ccc(C(=O)OCC(=O)N3c4ccccc4Sc4ccccc43)cc2[N+](=O)[O-])C1 (centres undefined) | active: 23.1 µM | –
CCn1cc(C(=O)O)c(=O)c2cc(F)c(N/N=C/c3ccccc3[N+](=O)[O-])cc21 | active: 16.4 µM | –
Cc1cccc(S(=O)(=O)N(C)C[C@@H]2OCc3cn(nn3)CCCC(=O)N([C@H](C)CO)C[C@H]2C)c1 | – | inconclusive: -38.8% [inhibitor]
CCCOC(=O)c1ccc(NC(=O)Cn2nnc3sc4c(c3c2=O)CCC(C(C)(C)C)C4)cc1 (centres undefined) | active: 8.2 µM | –
O=S(=O)(NCCS(=O)(=O)N1CCN(c2ccc(F)cc2)CC1)c1ccc(F)cc1 | inactive | –
CC(Sc1ncnc2sc(-c3ccccc3)cc12)C(=O)NCC1CCCO1 (centres undefined) | active: 23.1 µM | –
C[C@]12CCC3C(CC=C4C[C@@H](O)CC[C@@]43C)C1CCC2[C@]1(C)CCC(=O)O1 (some centres undefined) | inconclusive: 23.1 µM [inhibitor, single point] | –
CCN(CC)S(=O)(=O)c1ccc(C(C)NC(=O)C2CCCN2C(=O)c2cccs2)cc1 (centres undefined) | inconclusive: 18.4 µM [inhibitor, single point] | –
O=S(=O)(Nc1ccc2nc(N3CCOCC3)sc2c1)c1ccccc1 | inconclusive: 14.6 µM [inhibitor, partial curve] | –

Structure (SMILES) | Potency | activity change, negative = growth inhibition
O=C(Nc1nc(-c2ccc(Cl)s2)cs1)c1cccs1 | active: 18.4 µM | –
CN(C)c1ccc(C(=N)Cc2ccc3ccccc3n2)cc1 | inconclusive: 20.6 µM [inhibitor, single point] | –
CCOc1ccc(CCNC(=O)CN2C(=O)c3cccnc3Oc3ccc(C)cc32)cc1OCC | inconclusive: 25.9 µM [inhibitor, single point] | –
COc1ccc(NC(=O)c2ccco2)cc1NC(=O)C(C)Oc1ccc(Cl)cc1Cl (centres undefined) | active: 6.51 µM | –
Cc1cnc(-n2ncc(C(=O)NCC(C)(C)N3CCOCC3)c2C(C)C)nc1-c1ccc(F)cc1 | inactive | –
O=C(COC(=O)CNC(=O)c1ccccc1F)NC1CC1 | inactive | –
Cn1c(Cn2c(=O)sc3ccccc32)nnc1SCC(=O)NCCc1ccccc1 | inactive | –
O=C1CC(c2ccco2)CC(O)=C1C=Nc1ccccc1-c1ccccc1 (centres undefined) | inconclusive: 29.1 µM [inhibitor, single point] | –
CC(=O)c1cc(-c2ccc(F)cc2)n(CC(=O)NC2CCCCCC2)c1C | active: 16.4 µM | –
COc1ccc(C(=O)C(C)OC(=O)CNC(=O)C2CCCCC2)cc1 (centres undefined) | inactive and inconclusive: 29.1 µM [inhibitor, single point] | –
O=S(=O)(c1ccc(Br)cc1)c1nc(-c2ccco2)oc1SCc1ccccc1F | inconclusive: 20.6 µM [inhibitor, single point] | –
CC(=O)CC1c2cc(F)ccc2C=C(c2ccsc2)N1c1ccc(C#CC2(O)CCCCC2)cc1 (centres undefined) | active: 23.1 µM | –
Cc1ccc(SCc2nc(N)nc(Nc3ccccc3C)n2)c(C)c1 | inconclusive: 20.6 µM [inhibitor, single point] | –
CC(C)C(c1nnnn1C1CCCCC1)N1CCN(C(=O)c2ccco2)CC1 (centres undefined) | inactive | –
COc1cc(O)ccc1C=O | inactive | –
Cn1c2ccc(Cl)cc2c2nc3ccccc3nc21 | inconclusive: 23.1 µM [inhibitor, single point] | –
COc1ccc(N(CC(=O)Nc2cccc(N(C)S(C)(=O)=O)c2)S(=O)(=O)c2ccccc2)cc1Cl | active: 20.6 µM | –
CCCOc1ccc(-c2cccc(NS(=O)(=O)c3cccs3)c2)nn1 | – | inconclusive: -37.9% [inhibitor]
CC(NC(=O)COC(=O)/C=C/c1ccc2c(c1)OCO2)c1ccccc1 (centres undefined) | inactive | –
Cc1n(Cc2ccccc2)c2ccccc2[n+]1Cc1ccccc1 | active: 0.731 µM | –
CCCCN(C(=O)CSCC(=O)Nc1ccc(OC)cc1)c1c(N)n(Cc2ccccc2)c(=O)[nH]c1=O | inactive | –
Cc1cccc(NC(=O)COc2ccccc2C(=O)Nc2ccccc2)c1 | inconclusive: 25.1 µM [inhibitor, single point] | –
O=C(COC(=O)c1ccc([N+](=O)[O-])o1)NC1CCCCC1 | active: 0.0082 µM | –
Cc1nc(NC(=O)c2ccccc2)sc1-c1csc(NCc2ccco2)n1 | active: 23.1 µM | –
